Reference: the supplement of paper PMC8728848
Some of the results follow.

Key:
Assay in all cases: glycan array binding signal (z-score within array); higher = stronger binding
Settings in all cases: glycan notation: IUPAC condensed, linker removed
[1] = target: Fuc(a1-3)GlcNAc
Summary of the method: (§1)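 From the Consortium for Functional Glycomics database, 3228 arrays were curated, keeping only those whose protein sequence was available. Binding is given as a within-array Z-score averaged across arrays sharing a protein sequence and across linkers. Negative Z-scores can be read as non-binding.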

[2] = target: Fuc(a1-3)[Gal(b1-4)]Glc6S
Summary of the method: as §1

[3] = target: Fuc(a1-3)[Gal(b1-4)]GlcNAc
Summary of the method: as §1

[4] = target: Fuc(a1-3)[Gal(b1-4)]GlcNAc(b1-2)Man
Summary of the method: as §1

[5] = target: Fuc(a1-3)[Gal(b1-4)]GlcNAc(b1-2)Man(a1-3)[Fuc(a1-3)[Gal(b1-4)]GlcNAc(b1-2)Man(a1-6)]Man(b1-4)GlcNAc(b1-4)GlcNAc
Summary of the method: as §1

[6] = target: Fuc(a1-3)[Gal(b1-4)]GlcNAc(b1-2)Man(a1-3)[Fuc(a1-3)[Gal(b1-4)]GlcNAc(b1-2)Man(a1-6)]Man(b1-4)GlcNAc(b1-4)[Fuc(a1-6)]GlcNAc
Summary of the method: as §1

[7] = target: Fuc(a1-3)[Gal(b1-4)]GlcNAc(b1-3)Gal(b1-3)[Fuc(a1-4)]GlcNAc
Summary of the method: as §1

[8] = target: Fuc(a1-3)[Gal(b1-4)]GlcNAc(b1-3)Gal(b1-4)[Fuc(a1-3)]GlcNAc
Summary of the method: as §1

[9] = target: Fuc(a1-3)[Gal(b1-4)]GlcNAc(b1-3)Gal(b1-4)[Fuc(a1-3)]GlcNAc(b1-3)Gal(b1-4)[Fuc(a1-3)]GlcNAc
Summary of the method: as §1

[10] = target: Fuc(a1-3)[Gal(b1-4)]GlcNAc(b1-3)GalNAc
Summary of the method: as §1

[11] = target: Fuc(a1-3)[Gal(b1-4)]GlcNAc(b1-6)GalNAc
Summary of the method: as §1

[12] = target: Fuc(a1-3)[Gal(b1-4)]GlcNAc(b1-6)[Gal(b1-3)GlcNAc(b1-3)]Gal(b1-4)Glc
Summary of the method: as §1

[13] = target: Fuc(a1-3)[Gal(b1-4)]GlcNAc6S
Summary of the method: as §1

[14] = target: Fuc(a1-3)[Gal3S(b1-4)]Glc
Summary of the method: as §1

[15] = target: Fuc(a1-3)[Gal3S(b1-4)]GlcNAc
Summary of the method: as §1

[16] = target: Fuc(a1-3)[Gal3S(b1-4)]GlcNAc6S
Summary of the method: as §1

[17] = target: Fuc(a1-3)[GalNAc(b1-4)]GlcNAc
Summary of the method: as §1

[18] = target: Fuc(a1-3)[GalNAc(b1-4)]GlcNAc6S
Summary of the method: as §1

[19] = target: Fuc(a1-4)GlcNAc
Summary of the method: as §1

[20] = target: Fuc(b1-3)GlcNAc
Summary of the method: as §1

[21] = target: Gal(a1-2)Gal
Summary of the method: as §1

[22] = target: Gal(a1-3)Gal
Summary of the method: as §1

[23] = target: Gal(a1-3)Gal(b1-3)GlcNAc
Summary of the method: as §1

[24] = target: Gal(a1-3)Gal(b1-3)GlcNAc(b1-2)Man
Summary of the method: as §1

[25] = target: Gal(a1-3)Gal(b1-3)GlcNAc(b1-2)Man(a1-3)[Gal(a1-3)Gal(b1-3)GlcNAc(b1-2)Man(a1-6)]Man(b1-4)GlcNAc(b1-4)GlcNAc
Summary of the method: as §1

[26] = target: Gal(a1-3)Gal(b1-3)GlcNAc(b1-3)GalNAc
Summary of the method: as §1

[27] = target: Gal(a1-3)Gal(b1-3)GlcNAc(b1-6)GalNAc
Summary of the method: as §1

[28] = target: Gal(a1-3)Gal(b1-3)[Fuc(a1-4)]GlcNAc(b1-2)Man(a1-3)[Gal(a1-3)Gal(b1-3)[Fuc(a1-4)]GlcNAc(b1-2)Man(a1-6)]Man(b1-4)GlcNAc(b1-4)GlcNAc
Summary of the method: as §1

[29] = target: Gal(a1-3)Gal(b1-4)Glc
Summary of the method: as §1

[30] = target: Gal(a1-3)Gal(b1-4)GlcNAc
Summary of the method: as §1

[31] = target: Gal(a1-3)Gal(b1-4)GlcNAc(b1-2)Man
Summary of the method: as §1

[32] = target: Gal(a1-3)Gal(b1-4)GlcNAc(b1-2)Man(a1-3)[Gal(a1-3)Gal(b1-4)GlcNAc(b1-2)Man(a1-6)]Man(b1-4)GlcNAc(b1-4)GlcNAc
Summary of the method: as §1

[33] = target: Gal(a1-3)Gal(b1-4)GlcNAc(b1-3)GalNAc
Summary of the method: as §1

[34] = target: Gal(a1-3)Gal(b1-4)GlcNAc(b1-6)GalNAc
Summary of the method: as §1

[35] = target: Gal(a1-3)Gal(b1-4)[Fuc(a1-3)]GlcNAc
Summary of the method: as §1

[36] = target: Gal(a1-3)Gal(b1-4)[Fuc(a1-3)]GlcNAc(b1-2)Man(a1-3)[Gal(a1-3)Gal(b1-4)[Fuc(a1-3)]GlcNAc(b1-2)Man(a1-6)]Man(b1-4)GlcNAc(b1-4)GlcNAc
Summary of the method: as §1

[37] = target: Gal(a1-3)GalNAc
Summary of the method: as §1

B1: GS14009A-pdi-495-27-495 (Parabacteroides distasonis) (protein)
chain: FEEVNTDPDSPTDVPTTNLLAYSLYYTSYRLYDRWFAMDEPMTFCGYASKMTYIDESRYNFRTGVQDTNWEYLYRILNNLKDIEKRATFNETPNMLNVSKVMQVHLMQVATDRWRDVPYTDAAKMTDGILQPKYDKQEDIYPGLLATLKEAADGFADGGSDDLGEGDLLFGGDIEKWQRYCNSMRLRLAMRISEVSPALAKETVEEVMGNPTKYPIMESNDDNAFFWWIGTDPNYYEPMADGYRTRKTEYCAADVIVDHMNTREDPRRSSYFQPTKESVEAGEPKYVGYTIGAKANAVASKYSIWGARFFTDLAGFSPYMRVAEPWFCVAEASMLGWNTGISAEDAYNKAVTYSMEENSVSAEDIADYLANAGKFTNDKKQIYYEEWVAMFKQGMEGWSLYRRTGVPDNLYPAPGRPANYSNHNVPPFRSPYPDKERNLNNANCAPFDAEVVDNLWGKQMWWDTRTGVH
glycan array binding signal (z-score) [1]: -0.51
glycan array binding signal (z-score) [2]: 0.408
glycan array binding signal (z-score) [3]: -0.095
glycan array binding signal (z-score) [4]: -0.201
glycan array binding signal (z-score) [5]: -0.697
glycan array binding signal (z-score) [6]: 0.393
glycan array binding signal (z-score) [7]: -0.447
glycan array binding signal (z-score) [8]: 0.329
glycan array binding signal (z-score) [9]: 0.445
glycan array binding signal (z-score) [10]: -0.506
glycan array binding signal (z-score) [11]: 0.625
glycan array binding signal (z-score) [12]: -0.416
glycan array binding signal (z-score) [13]: -0.674
glycan array binding signal (z-score) [14]: -0.379
glycan array binding signal (z-score) [15]: -0.762
glycan array binding signal (z-score) [16]: -0.259
glycan array binding signal (z-score) [17]: 0.496
glycan array binding signal (z-score) [18]: -0.018
glycan array binding signal (z-score) [19]: -0.404
glycan array binding signal (z-score) [20]: 0.704
glycan array binding signal (z-score) [21]: -0.76
glycan array binding signal (z-score) [22]: -0.238
glycan array binding signal (z-score) [23]: -0.255
glycan array binding signal (z-score) [24]: 0.597
glycan array binding signal (z-score) [25]: 0.338
glycan array binding signal (z-score) [26]: -0.183
glycan array binding signal (z-score) [27]: -0.003
glycan array binding signal (z-score) [28]: 0.794
glycan array binding signal (z-score) [29]: -0.017
glycan array binding signal (z-score) [30]: -0.77
glycan array binding signal (z-score) [31]: -0.545
glycan array binding signal (z-score) [32]: 0.96
glycan array binding signal (z-score) [33]: -0.015
glycan array binding signal (z-score) [34]: -0.267
glycan array binding signal (z-score) [35]: 0.306
glycan array binding signal (z-score) [36]: 0.074
glycan array binding signal (z-score) [37]: -0.234
